Test results from PMC6664820, “Novel natural and synthetic inhibitors of solute carriers SGLT1 and SGLT2” (Pharmacology Research & Perspectives, 2019).
About 40 (2%) of roughly 1,900 compounds showed an effect of 50% or more. The list shows a part of the results.

target: human SGLT1 (hSGLT1) (human, UniProt P13866); experiment: primary screen, percent of control activity; higher = less effect of the substance; parameters: single well; details: 50 µM
Procedure, shortened: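 Single-point screen at 50 µmol/L in CHO-hSGLT1 cells, with 160 µmol/L 1-NBD-glucose in glucose-free DMEM for 90 min at 37°C. Fluorescence from isopropanol extracts was calibrated, and CHO wild-type uptake was subtracted. Data are percent of uptake without compound.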

Sequence of human SGLT1 (hSGLT1) (P13866 whole entry, looked up): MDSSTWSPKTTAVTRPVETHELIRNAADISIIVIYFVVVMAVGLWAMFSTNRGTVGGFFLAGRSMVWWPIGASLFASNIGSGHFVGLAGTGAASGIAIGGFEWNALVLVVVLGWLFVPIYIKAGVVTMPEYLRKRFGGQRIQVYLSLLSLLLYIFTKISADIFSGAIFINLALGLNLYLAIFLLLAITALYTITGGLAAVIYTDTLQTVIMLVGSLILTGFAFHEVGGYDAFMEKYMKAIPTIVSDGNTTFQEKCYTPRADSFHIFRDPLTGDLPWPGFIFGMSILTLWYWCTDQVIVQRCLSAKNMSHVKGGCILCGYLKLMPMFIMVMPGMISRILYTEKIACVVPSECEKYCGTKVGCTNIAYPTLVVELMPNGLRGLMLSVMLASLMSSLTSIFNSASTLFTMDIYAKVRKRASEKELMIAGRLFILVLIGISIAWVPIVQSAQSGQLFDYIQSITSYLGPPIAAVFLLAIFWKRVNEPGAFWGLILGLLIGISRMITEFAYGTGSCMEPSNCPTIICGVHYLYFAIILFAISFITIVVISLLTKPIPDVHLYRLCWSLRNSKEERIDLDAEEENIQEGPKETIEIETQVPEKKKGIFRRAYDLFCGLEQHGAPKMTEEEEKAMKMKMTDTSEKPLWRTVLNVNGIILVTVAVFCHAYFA

| Compound | NORMALIZED SGLT1 ACTIVITY (%) |
| --- | --- |
| Cc1ccc(C(C)C)c(O)c1C(=O)O | 174 |
| CC(=O)Oc1ccc2c(c1C(C)C)CCC1C(C)(C)CCC[C@]21C (some centres unmarked) | 116 |
| CC(C)/C(O)=C1/C(=O)O[C@@H](c2ccoc2)[C@]2(C)C(O)[C@@H](O)[C@@]34OC5(C)OC67CC(C)(C(O)[C@]6(O)[C@@H](O)[C@]3(O5)C12)[C@H](CC(=O)O)[C@]74C (some centres unmarked) | 89 |
| C[C@@H]1CC[C@@]23CCC4(C)[C@@](C=CC5[C@@]6(C)CC[C@H](O)C(C)(C)C6CC[C@]54C)(OC2=O)C3[C@H]1C (some centres unmarked) | 106 |
| CC1(C)O[C@@H]2C[C@H]3[C@@H]4CCC5=CC(=O)C=C[C@]5(C)[C@@]4(F)[C@@H](O)C[C@]3(C)[C@]2(C(=O)CO)O1 | 156 |
| COC(=O)C[C@H]1C(C)(C)[C@H](O)[C@@H]2CC3=C4CC(O)O[C@@H](c5ccoc5)[C@]4(C)CCC3[C@@]1(C)C2=O (some centres unmarked) | 120 |
| O=C(Nc1ccc([N+](=O)[O-])cc1Cl)c1cc(Cl)ccc1O | 186 |
| CNC(=O)Oc1ccc2c(c1)[C@]1(C)CCN(C)[C@@H]1N2C | 86 |
| COc1cc(NC(C)CCCN)c2ncccc2c1.O=P(O)(O)O.O=P(O)(O)O (centres unmarked) | 128 |
| C[C@H](CCC(=O)O)[C@H]1CC[C@H]2[C@@H]3CC[C@@H]4C[C@H](O)CC[C@]4(C)[C@H]3C[C@H](O)[C@]12C | 114 |
| N[C@@H](C(=O)N[C@@H]1C(=O)N2C(C(=O)O)=C(Cl)CS[C@H]12)c1ccccc1 | 139 |
| O=c1cc(-c2ccc(O)cc2)oc2cc(O[C@@H]3O[C@H](CO)[C@@H](O)[C@H](O)[C@H]3O)cc(O)c12 | 83 |
| CN(C)C(=O)Nc1ccc(Cl)c(Cl)c1 | 127 |
| COc1c(O)cccc1O | 108 |
| Cc1cc(-c2ccccc2)nnc1NCCN1CCOCC1.Cl.Cl | 141 |
| CCC(C)C(=O)O[C@H]1[C@H](O)C2C(CN3CC(C)CCC3[C@@]2(C)O)C2C[C@]34O[C@]5(O)C(OC(=O)C(C)(O)C(C)O)CC[C@@]3(C)C5C(OC(C)=O)[C@@H](OC(C)=O)C4[C@@]21O (some centres unmarked) | 121 |
| CC(CCC(=O)O)[C@H]1CCC2C3CC[C@@H]4C[C@H](O)CC[C@]4(C)C3C=C[C@@]21C (some centres unmarked) | 463 |
| CCOC(=O)n1ccn(C)c1=S | 146 |
| CN1CCC[C@H]1c1cccnc1.O=C(O)C(O)C(O)C(=O)O.O=C(O)C(O)C(O)C(=O)O | 148 |
| COc1ccc(C(C)=O)c(O)c1 | 128 |
| C[C@H](N)[C@H](O)c1cccc(O)c1.O=C(O)[C@H](O)[C@@H](O)C(=O)O | 89 |

| Compound | NORMALIZED SGLT1 ACTIVITY (%) |
| --- | --- |
| CO/N=C(\C(=O)N[C@@H]1C(=O)N2C(C(=O)O)=C(COC(N)=O)CS[C@H]12)c1ccco1 | 92 |
| C[C@@H](N)[C@@H](O)c1ccccc1 | 142 |
| CCC(=O)c1c(O)cc(O)cc1O | 167 |
| C/C=C(/C)C(=O)O[C@H]1CC[C@@]2(C)[C@@H]3CC[C@H]4[C@]5(O)C[C@H](O)[C@@]6(O)[C@@H](CN7C[C@@H](C)CC[C@H]7[C@@]6(C)O)[C@]5(O)C[C@@]42O[C@]13O.O=S(=O)(O)O | 138 |
| NC1C[C@H]1c1ccccc1.O=S(=O)(O)O (some centres unmarked) | 92 |
| NCCc1ccc(O)cc1 | 93 |
| NC(COCc1ccccc1)C(=O)O (centres unmarked) | 95 |
| COC(=O)C[C@H]1C2(C)CC34OC5(C)O[C@@]6([C@H](OC(C)=O)C(OC(C)=O)[C@]7(C)C(/C(=C(/O)C(C)C)C(=O)O[C@H]7c7ccoc7)[C@@]6(O5)[C@H](OC(C)=O)[C@@]3(O)C2OC(=O)C(C)C)[C@]14C (some centres unmarked) | 155 |
| CC1(C)C2CC[C@]3(C)C(C(=O)C=C4[C@H]5C[C@@](C)(C(=O)O)CC[C@]5(C)CC[C@]43C)[C@@]2(C)CC[C@@H]1O (some centres unmarked) | 148 |
| Cc1cc(O)c2c(c1O)C(=O)c1c(O)cc(C)c(O)c1C2=O | 127 |
| CN[C@@H](C)[C@@H](O)c1ccccc1.Cl | 120 |
| C=C(C)C1CNC(C(=O)O)C1CC(=O)O (centres unmarked) | 112 |
| CC1(C)CC[C@]2(C(=O)O)CC[C@]3(C)C(=CC[C@@H]4[C@@]5(C)CC[C@H](O)[C@@](C)(CO)[C@@H]5CC[C@]43C)[C@@H]2C1 | 248 |
| CC1(C)C=Cc2c(cc3occ(-c4ccc5c(c4)OCO5)c(=O)c3c2O)O1 | 100 |
| CN(C)CCCN1c2ccccc2Sc2ccccc21.Cl | 38 |
| CCC(C)C(=O)O[C@H]1[C@H](O)C2C(CN3CC(C)CCC3[C@@]2(C)O)C2C[C@]34O[C@]5(O)C(OC(=O)C(C)(O)CC)CC[C@@]3(C)C5C(OC(C)=O)[C@@H](OC(C)=O)C4[C@@]21O (some centres unmarked) | 114 |
| C=CC(N)CCC(=O)O (centres unmarked) | 105 |
| O=C(O)c1cc2cc(F)ccc2[nH]1 | 103 |
| O=C1OCCN1/N=C/c1ccc([N+](=O)[O-])o1 | 123 |
| Cl.c1ccc2c(c1)CCCC2C1=NCCN1 (centres unmarked) | 98 |
